Experimental data from the RNAGym collection of RNA variant scans (doi:10.7554/elife.90254).
Read counts are not given, so values of variants with three or more changes are uncertain.

B1: LINE1-mini (parent)
chain: GGCAGAGCUCAACACAGCGUGGCAAAGUGGCUGUGGCUAGACUGCC

Variants of: B1
Test: self-cleavage, relative activity (ratio to wild type); higher = more cleavage; in vitro, sequencing; the parent is a self-cleaving ribozyme
With GGCAGCGCUCAACACAGCGCGACAAAGUGGCUGUGGCUAGACUGCC [A6C U20C G22A] the self-cleavage was 0.4. With GGCAGGGGUCAACACAGCGUGGCAAAGUGGCUGUGGCUAGUCUGCC [A6G C8G A41U] the self-cleavage was 0.08. For GGCAGCGCUCAACACAGCGUGCCAAAGUGGCUGUGCCUAGACUGCC [A6C G22C G36C], the self-cleavage was 0.04. GGCAGCGCUCAACACAGCGUGGCAAAGUGGCUGUGCCUAGAAUGCU [A6C G36C C42A C46U] gave a self-cleavage of 0.04. GGCAGGGCUCAACGCAGCGUGGCAAAGUGGAUGUAGCCAGAAUGCC [A6G A14G C31A G35A U38C C42A] showed a self-cleavage of 0.01. For GGCAGGGCUCAACACGGCAUGGCAGAGUGGCUGUGGCCAGACUGCC [A6G A16G G19A A25G U38C], the self-cleavage was 0.01. For GGCAGCGCUCAACACAGCGUGGCAAAAUGGCGGUGGCUAGACUGCC [A6C G27A U32G], the self-cleavage was 0.03. Work on GGCAGGGCUCAACACAGCGUGGCCAAGGGGCUGCAGCUAGACUUCC [A6G A24C U28G U34C G35A G44U] yielded a self-cleavage of 0.02. With GGCAGGGCUCAACACAGCGUGGCAUAGUGGCUGUGGCUUGACUGCC [A6G A25U A39U] the self-cleavage was 0.06. Work on GGCAGCGCAGAACACAGCGUGGCAAAGUGGCUGGGGCUAGACUGCC [A6C U9A C10G U34G] yielded a self-cleavage of 0.04. Variant GGCAGCGCUCAACACAGCGUGGCAAAGUGCCUGUUGCUAGACUGCC [A6C G30C G35U] has a self-cleavage of 0.19. With GGCAGCGCUCAACACAUCGUGGCAAUGUGGCUGUGGCUAGACUGCC [A6C G17U A26U] the self-cleavage was 0.03. With GGCAGGGCUCGACGCAGCCUGGCAAAGUGGCUGUGGCUAGACUGCC [A6G A11G A14G G19C] the self-cleavage was 0.01. Variant GGCAGCGCUCAACACAGCGUGGCAAAGUGGCUGUUGCUAGACUGUC [A6C G35U C45U] has a self-cleavage of 0.03. For GGCAGGGCUCAACACAGCGUGGCAACGUCGCUGUGGAUAGACUGCC [A6G A26C G29C C37A], the self-cleavage was 0. Variant GGCAGGGCUCAACACAGCGUGGCACAGUGUCUGUGGAUAGACUGCC [A6G A25C G30U C37A] has a self-cleavage of 0.03. GGCAGCGCACAACACAGCGUGGCAAAGUGGCUGUGGCUAGACAGCC [A6C U9A U43A] gave a self-cleavage of 0.04. GGCAGCGCUCAACACAGCGUGGCAAAUUCGCUGUGGCUAGACUGCG [A6C G27U G29C C46G] showed a self-cleavage of 0.17. With GGCAGCGCACAACACAGCGUUGCAAAGUGGCUGUGGCUAGACUGCC [A6C U9A G21U] the self-cleavage was 0.18. Work on GGCAGGGCUCAACACAGCGUGGCAAUAUGGCUGUGGCUAGACUGCC [A6G A26U G27A] yielded a self-cleavage of 0.11. GGCAGGGAUCAACACAGCCUGGCAAAGUGGCUGUGGCUAGACUGCC [A6G C8A G19C] showed a self-cleavage of 0.09. Work on GGCAGGGCUCAACACUGCGUGGCGUAGUGGCUGUGGCUAGACUGCC [A6G A16U A24G A25U] yielded a self-cleavage of 0.01. Variant GGCAGGGCUCGACACGGCGUGACAAAGUGGCUGUGGCUAGUCUGCC [A6G A11G A16G G22A A41U] has a self-cleavage of 0. For GGCAGCGCUCAACACAGCGUGGCAAAGUCGCUGUGACUAUACUGCC [A6C G29C G36A G40U], the self-cleavage was 0.07. Variant GGCAGCGCCCAACACAGCGUGGCAAAGUGGCUGUGGUUAGCCUGCC [A6C U9C C37U A41C] has a self-cleavage of 0.03. GGCAGGGCUCAACUCAGCGUGCCAAAGUGGCUGUGGCUAAACUGCC [A6G A14U G22C G40A] showed a self-cleavage of 0.05. GGCAGCGCUCAACACAGCGUGCCAAAGUGGCUGUGGCUAUACUGCC [A6C G22C G40U] showed a self-cleavage of 0.02. For GGCAGGGCUCAACACGGCGUGGUAAAGUGGCUGUGGCUAGACUACC [A6G A16G C23U G44A], the self-cleavage was 0.02. For GGCAGCGCUCAACACAUCGUGGCAAAGUGGCUGUGGCUAGAAUGCC [A6C G17U C42A], the self-cleavage was 0.08. GGCAGCGCUCAACACAGCGUGGCAAAGUGGCUGUGGCUAUACCGCC [A6C G40U U43C] showed a self-cleavage of 0.12. With GGCAGGGCUCAGCACAGCGUGGGAAAGUGGCUGAGGCUAGACUGCC [A6G A12G C23G U34A] the self-cleavage was 0.02. GGCAGCGCUCAACACAGCGUGGCAAAGUGGCUGAAGCUAGACUGCC [A6C U34A G35A] gave a self-cleavage of 0.05. With GGCAGCGCUCAACACAGCGUGUCGAAGUGGCUGUGGCUAGACUGCC [A6C G22U A24G] the self-cleavage was 0.44. With GGCAGGGCUCAACACAGCGUGGCUAAGAGGCUGUGGCUAGACUGCC [A6G A24U U28A] the self-cleavage was 0.01. GGCAGGGCUCAUCACAGCGUGGCAGAGUGGCUGUGGCUAGACUGCC [A6G A12U A25G] showed a self-cleavage of 0.02. With GGCAGCGCUCAACACAGCGUGGCAAAGUGUCUGUGGCUAGACCGCC [A6C G30U U43C] the self-cleavage was 0.04. Variant GGCAGCGCUCAACACAGCGUGGCAAACUCGCUGUGGCUAGACUGCC [A6C G27C G29C] has a self-cleavage of 0.03. Work on GGCAGCGCUCAACACAUCGUGGCAAAGUGGCAGUGAAUAGACUGCC [A6C G17U U32A G36A C37A] yielded a self-cleavage of 0.13. GGCAGCGCCGAACACAGUGUGGCAAAGUGGCCGUGGCUACACUGCC [A6C U9C C10G C18U U32C G40C] gave a self-cleavage of 0. Work on GGCAGCGCUCAACACAGCGUGGCAAAGUGGCUGUUGCUAGAUUGCC [A6C G35U C42U] yielded a self-cleavage of 0.31. GGCAGCGCUCAACACAGCAUGGCAAAGUGGCUCUGGCUAGACUGCC [A6C G19A G33C] showed a self-cleavage of 0.35. In the case of GGCAGGGCUCUACACAGCGUGGCAACGUGGCUGUGGCAGGACUGCC [A6G A11U A26C U38A A39G], the self-cleavage is reported as 0. Work on GGCAGCGCUCAACACAGCGUGGCAAACUGGCUGUGGCUAGACUGGC [A6C G27C C45G] yielded a self-cleavage of 0.1. Variant GGCAGCGCCCAGCACAGCGUGGCAAAGUGGCUGUGGCUAGACUGCC [A6C U9C A12G] has a self-cleavage of 0.04. GGCAGCGCUCAACACAGCGUGGCAAAGUGGCAGUGGCUAGAUUGCC [A6C U32A C42U] gave a self-cleavage of 0.01. Variant GGCAGCGCUCAACACAGCGUGGCAAAGUGGCUGUGACUAGACUGCG [A6C G36A C46G] has a self-cleavage of 0.05. For GGCAGGGCUCAGUACAGCGUGGCAAAGUGGCUGUGGCUAGUCUGCC [A6G A12G C13U A41U], the self-cleavage was 0.01. Variant GGCAGGGAUCAACACAGCGUGGCAAAGUGGCUGUAGCUGGACUGCC [A6G C8A G35A A39G] has a self-cleavage of 0.14. For GGCAGCGCUCAACACAGCGUGGCAAAGUGGCUUUGGCCAGAUUGCC [A6C G33U U38C C42U], the self-cleavage was 0.02. GGCAGCGCUCAACACAGCGUAGCAUAGUGGCCGUGGCUAGACUUCC [A6C G21A A25U U32C G44U] gave a self-cleavage of 0.06. Variant GGCAGCGCCCAACACAGCGUGGCAAAGUGGCUGUGGCUUGACUGCC [A6C U9C A39U] has a self-cleavage of 0.04. Work on GGCAGCGCUCAACACAUCUUGGCAAGGUGGCCGUAGCUAGACUGCC [A6C G17U G19U A26G U32C G35A] yielded a self-cleavage of 0. GGCAGCGCUCAACACAGCGUGGCAAAGUGGCUGUGUCUAGGCUGCC [A6C G36U A41G] showed a self-cleavage of 0.01. GGCAGCGCUCAACACAGCGUUGCAAUGUCGCUGUGGCUAGACUGCC [A6C G21U A26U G29C] showed a self-cleavage of 0.66. With GGCAGGGCUCAUCUCUGCGUGGUAAAGUUGCUGAUGCUAGACUGCC [A6G A12U A14U A16U C23U G29U U34A G35U] the self-cleavage was 0.01. GGCAGCGCUCAACACAGCGUGGCAAAGUGGCAGAGGCUAGACCGCC [A6C U32A U34A U43C] gave a self-cleavage of 0.02.
